Laboratory results as given in PMC9911399, “Two distinct binding modes provide the RNA-binding protein RbFox with extraordinary sequence specificity”.
Substitutions are numbered along the chain they refer to; changes in the protein carry UniProt numbers. The list shows a part of the results.

T1: RBFOX1 RRM (Homo sapiens, UniProt Q9NWB1 109-208)
T1 sequence: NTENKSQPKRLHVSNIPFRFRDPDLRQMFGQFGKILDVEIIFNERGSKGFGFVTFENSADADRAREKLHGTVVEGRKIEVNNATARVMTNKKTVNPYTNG

B1: UGGUUCG (DNA:RNA)
RNA: GGGAGACCGGAAUUCAGAUUGUCCUGGUUCGUUAAAUCCCGUCGUAGCCACCA
DNA 1: CAATCTGAATTCCGGTCTCCC
DNA 2: TGGTGGCTACGACGGGATT
B2: UGUACAC (DNA:RNA)
RNA: B1 RNA with G27U, U28A, U29C, C30A, G31C
DNA 1: CAATCTGAATTCCGGTCTCCC
DNA 2: TGGTGGCTACGACGGGATT
B3: UUAUGGA (DNA:RNA)
RNA: B1 RNA with G26U, G27A, U29G, C30G, G31A
DNA 1: CAATCTGAATTCCGGTCTCCC
DNA 2: TGGTGGCTACGACGGGATT
B4: AAAGCUU (DNA:RNA)
RNA: GGGAGACCGGAAUUCAGAUUGUCCAAAGCUUUUAAAUCCCGUCGUAGCCACCA
DNA 1: CAATCTGAATTCCGGTCTCCC
DNA 2: TGGTGGCTACGACGGGATT
B5: CCGAUGC (DNA:RNA)
RNA: B1 RNA with U25C, G26C, U28A, C30G, G31C
DNA 1: CAATCTGAATTCCGGTCTCCC
DNA 2: TGGTGGCTACGACGGGATT
B6: ACGGGAC (DNA:RNA)
RNA: B4 RNA with A26C, A27G, C29G, U30A, U31C
DNA 1: CAATCTGAATTCCGGTCTCCC
DNA 2: TGGTGGCTACGACGGGATT
B7: GCAGGUA (DNA:RNA)
RNA: B4 RNA with A25G, A26C, C29G, U31A
DNA 1: CAATCTGAATTCCGGTCTCCC
DNA 2: TGGTGGCTACGACGGGATT
B8: CCCGCGA (DNA:RNA)
RNA: B4 RNA with A25C, A26C, A27C, U30G, U31A
DNA 1: CAATCTGAATTCCGGTCTCCC
DNA 2: TGGTGGCTACGACGGGATT
B9: UAGGCAA (DNA:RNA)
RNA: B4 RNA with A25U, A27G, U30A, U31A
DNA 1: CAATCTGAATTCCGGTCTCCC
DNA 2: TGGTGGCTACGACGGGATT
B10: UCUAAGG (DNA:RNA)
RNA: B1 RNA with G26C, G27U, U28A, U29A, C30G
DNA 1: CAATCTGAATTCCGGTCTCCC
DNA 2: TGGTGGCTACGACGGGATT
B11: CCGAGGG (DNA:RNA)
RNA: B1 RNA with U25C, G26C, U28A, U29G, C30G
DNA 1: CAATCTGAATTCCGGTCTCCC
DNA 2: TGGTGGCTACGACGGGATT
B12: UAGGAAG (DNA:RNA)
RNA: B1 RNA with G26A, U28G, U29A, C30A
DNA 1: CAATCTGAATTCCGGTCTCCC
DNA 2: TGGTGGCTACGACGGGATT
B13: UUUCAAG (DNA:RNA)
RNA: B1 RNA with G26U, G27U, U28C, U29A, C30A
DNA 1: CAATCTGAATTCCGGTCTCCC
DNA 2: TGGTGGCTACGACGGGATT
B14: UGCCCGU (DNA:RNA)
RNA: B4 RNA with A25U, A26G, A27C, G28C, U30G
DNA 1: CAATCTGAATTCCGGTCTCCC
DNA 2: TGGTGGCTACGACGGGATT
B15: AGUCUAU (DNA:RNA)
RNA: B4 RNA with A26G, A27U, G28C, C29U, U30A
DNA 1: CAATCTGAATTCCGGTCTCCC
DNA 2: TGGTGGCTACGACGGGATT
B16: AAGAAAG (DNA:RNA)
RNA: B4 RNA with A27G, G28A, C29A, U30A, U31G
DNA 1: CAATCTGAATTCCGGTCTCCC
DNA 2: TGGTGGCTACGACGGGATT
B17: ACCUAGG (DNA:RNA)
RNA: B1 RNA with U25A, G26C, G27C, U29A, C30G
DNA 1: CAATCTGAATTCCGGTCTCCC
DNA 2: TGGTGGCTACGACGGGATT
B18: UGGGGUA (DNA:RNA)
RNA: B1 RNA with U28G, U29G, C30U, G31A
DNA 1: CAATCTGAATTCCGGTCTCCC
DNA 2: TGGTGGCTACGACGGGATT
B19: AGACUCU (DNA:RNA)
RNA: B4 RNA with A26G, G28C, C29U, U30C
DNA 1: CAATCTGAATTCCGGTCTCCC
DNA 2: TGGTGGCTACGACGGGATT
B20: CAUUUCA (DNA:RNA)
RNA: B1 RNA with U25C, G26A, G27U, G31A
DNA 1: CAATCTGAATTCCGGTCTCCC
DNA 2: TGGTGGCTACGACGGGATT

Target: T1, RBFOX1 RRM
Experiment: EMSA; HiTS-Eq, 1 nM pool, 10 min; buffer printed only for the single-RNA assays: 10 mM Tris pH 7.5, 150 mM NaCl, 3.4 mM EDTA, 0.001% NP-40, 30 C
Conditions: tags: His6 N-terminal (pET28a); label: 5' 32P
Procedure, shortened: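 Purified wild-type or mutant RbFox RRM at increasing concentrations was equilibrated with 1 nM of 5′-radiolabelled RNA carrying 7 randomized nucleotides for 10 min in 50 µL. Unbound RNA was separated by 8% native PAGE and sequenced. Relative association constants came from read-count changes of each RNA species compared with the control reaction, normalised to the cognate motif.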

Binder | binding signal
B1 | 0.0375 KA relative to UGCAUGU
B2 | 0.00975 KA relative to UGCAUGU
B3 | 0.00363 KA relative to UGCAUGU
B4 | 0.00553 KA relative to UGCAUGU
B5 | 0.0124 KA relative to UGCAUGU
B6 | 0.0106 KA relative to UGCAUGU
B7 | 0.011 KA relative to UGCAUGU
B8 | 0.00603 KA relative to UGCAUGU
B9 | 0.00743 KA relative to UGCAUGU
B10 | 0.00615 KA relative to UGCAUGU
B11 | 0.00813 KA relative to UGCAUGU
B12 | 0.0131 KA relative to UGCAUGU
B13 | 0.0112 KA relative to UGCAUGU
B14 | 0.0214 KA relative to UGCAUGU
B15 | 0.00336 KA relative to UGCAUGU
B16 | 0.00632 KA relative to UGCAUGU
B17 | 0.00669 KA relative to UGCAUGU
B18 | 0.0298 KA relative to UGCAUGU
B19 | 0.00721 KA relative to UGCAUGU
B20 | 0.00377 KA relative to UGCAUGU
